± gives the standard deviation of the averaged measurements. Whole data set: some 33,000 sequences, median “E-score (dimensionless, -0.5 to 0.5)” near -0.049, cut for the highest 2% near 0.37. The list shows a part of the results.
These sequences were tested on T1, PmTbr T-box DNA-binding domain (GST fusion) (assay: PBM E-score of 8-mer (E-score (dimensionless, -0.5 to 0.5)); Tbr is Tbrain of the sea star Patiria miniata (Pm) or the sea urchin Strongylocentrotus purpuratus (Sp); higher = stronger binding preference; most listed sequences are background and not binding sites). Conditions: the construct has about 5 more residues each side.
T1 sequence: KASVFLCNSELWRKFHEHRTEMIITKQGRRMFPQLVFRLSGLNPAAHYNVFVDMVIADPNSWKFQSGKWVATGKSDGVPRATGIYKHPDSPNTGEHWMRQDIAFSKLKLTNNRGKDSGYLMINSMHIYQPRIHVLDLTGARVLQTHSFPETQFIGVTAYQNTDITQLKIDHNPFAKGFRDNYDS
Outline: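 Using the Universal PBM Analysis Suite, every ungapped 8-mer received an enrichment E-score averaged over duplicate arrays. Probe intensities came from double-stranded Universal Agilent oligonucleotide arrays incubated with 200 nM GST-fused Tbr T-box DNA-binding domain in PBS (pH 7.5). That protein was expressed in BL21 E. coli at 20 °C and purified by glutathione affinity chromatography.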

Sequence | PBM E-score of 8-mer
CTCTATTA | -0.0585 ± 0.07
CAGAGGGG | -0.178 ± 0.021
AAGGCTAG | -0.193 ± 0.047
ACCCTGTA | 0.0344 ± 0.052
CGTTGGCC | -0.179 ± 0.023
CCCACGAC | 0.0262 ± 0.048
TCGGGGAA | -0.295 ± 0.012
AATTGAGC | -0.221 ± 0.044
CCAACTCC | 0.0245 ± 0.013
CGGGTTAG | -0.215 ± 0.036
AGTCCGCG | 0.111 ± 0.033
AAGGTCAG | -0.21 ± 0.054
GAGTGAGC | -0.0853 ± 0.0095
GGGAACAA | -0.2556 ± 0.00058
CGAGGGAA | -0.134 ± 0.055
CTATTGGC | 0.203 ± 0.029
AATTTCAC | 0.328 ± 0.027
ACTCGTCT | -0.094 ± 0.038
ACATCTTA | 0.0796 ± 0.025
AAGCACTC | -0.159 ± 0.058
GCGGAGCA | -0.0103 ± 0.033
CGCATAGC | -0.0328 ± 0.038

Sequence | PBM E-score of 8-mer
ACGAAGAT | -0.123 ± 0.024
ACACTGTC | 0.254 ± 0.0087
GAGAATTA | -0.0566 ± 0.036
AGAATCCA | -0.104 ± 0.0065
ACCTCCGG | -0.0697 ± 0.072
AAGATATT | -0.0991 ± 0.056
GTATGTTA | 0.0298 ± 0.051
GATTAGTA | -0.0148 ± 0.03
CGACTCGC | 0.1856 ± 0.00035
GATTAATA | -0.0328 ± 0.028
GGGGAATA | -0.181 ± 0.046
TAAAACAA | -0.194 ± 0.037
ATAACGAC | 0.0976 ± 0.012
ACCAGACC | -0.136 ± 0.013
CCAACGAC | 0.0479 ± 0.05
GTCTCAGA | -0.127 ± 0.024
CGATAAAC | 0.13 ± 0.045
GTACCGTA | -0.312 ± 0.0072
CAAACGTA | -0.147 ± 0.003
ACTGACCT | -0.201 ± 0.084
GATTGGGC | -0.142 ± 0.038
GGAAAACA | -0.142 ± 0.064

Sequence | PBM E-score of 8-mer
CTCTATCA | 0.166 ± 0.044
ATGTTTTG | 0.0763 ± 0.032
CAGTACGG | -0.25 ± 0.0095
AGGCTACC | -0.275 ± 0.003
CGCTATAC | 0.142 ± 0.0027
GCGTCAGC | 0.166 ± 0.0083
GCTTGCCC | -0.245 ± 0.0072
AAATTGCA | -0.0135 ± 0.074
GTCTACGA | -0.127 ± 0.013
AGTTGTCC | -0.145 ± 0.027
ATTGAGTC | 0.11 ± 0.014
CGGAACGA | -0.238 ± 0.082
GTCTAACA | 0.173 ± 0.084
GCGCGATA | 0.337 ± 0.011
AGGACAAA | 0.152 ± 0.031
TGCAGAAA | -0.0308 ± 0.095
CATCTATC | -0.196 ± 0.023
TCGGGACA | -0.0831 ± 0.085
AGTAGGTG | 0.4125 ± 0.00071
AAACCGCA | -0.0644 ± 0.097
GACCCTGA | 0.125 ± 0.04
CACGTTCA | 0.1626 ± 0.001

Sequence | PBM E-score of 8-mer
CCCGGTTC | -0.145 ± 0.015
AAACCCGT | 0.0862 ± 0.011
CCGGCTTA | -0.182 ± 0.014
GATTCAGA | -0.206 ± 0.0085
CCCTACAG | -0.0807 ± 0.071
ACGCTTCA | 0.0342 ± 0.072
ATCTTCAC | 0.209 ± 0.046
ACATATGT | 0.229 ± 0.029
AGCTCCCC | -0.3 ± 0.072
ACAGCGGC | -0.015 ± 0.0098
CGATCTGA | 0.144 ± 0.026
ACGGTGTC | 0.26 ± 0.076
CTCTCCAG | -0.171 ± 0.04
GACCGCTC | -0.257 ± 0.034
GGGCCGGA | -0.161 ± 0.012
GGTGCAAA | 0.393 ± 0.0071
ACCAGACG | -0.168 ± 0.14
ATACCAGA | -0.307 ± 0.026
AATCAGGC | -0.0653 ± 0.098
GTTAAAGA | -0.117 ± 0.12

From the supplement of paper PMC4166925
